Values of other authors in PMC8865417, “Receptor Interaction Profiles of 4-Alkoxy-3,5-Dimethoxy-Phenethylamines (Mescaline Derivatives) and Related Amphetamines” (Frontiers in Pharmacology, 2022).

Assays:
[1] = molecular target: T1, h5-HT1A receptor (Homo sapiens, UniProt P08908); conditions: [3H]8-OH-DPAT; reference substances; ref Luethi et al. (2018b); read-out: h5-HT1A Receptor binding Ki ± SD; cited from earlier work
T1 construct: expressed in transfected cells; host or cells: HEK 293 cells (membrane preparations)

[2] = molecular target: human 5-HT2A receptor (Homo sapiens, UniProt P28223); set-up: expressed in transfected cells; host or cells: NIH-3T3 cells (mouse embryonic fibroblasts); conditions: reference substances, ref Luethi et al. (2018b), cited from earlier work
[3] = molecular target: human 5-HT2B receptor (Homo sapiens, UniProt P41595); set-up: expressed in transfected cells; host or cells: HEK 293 cells; conditions: reference substances, ref Luethi et al. (2018b), cited from earlier work
UniProt P41595, sequence (P41595 whole entry): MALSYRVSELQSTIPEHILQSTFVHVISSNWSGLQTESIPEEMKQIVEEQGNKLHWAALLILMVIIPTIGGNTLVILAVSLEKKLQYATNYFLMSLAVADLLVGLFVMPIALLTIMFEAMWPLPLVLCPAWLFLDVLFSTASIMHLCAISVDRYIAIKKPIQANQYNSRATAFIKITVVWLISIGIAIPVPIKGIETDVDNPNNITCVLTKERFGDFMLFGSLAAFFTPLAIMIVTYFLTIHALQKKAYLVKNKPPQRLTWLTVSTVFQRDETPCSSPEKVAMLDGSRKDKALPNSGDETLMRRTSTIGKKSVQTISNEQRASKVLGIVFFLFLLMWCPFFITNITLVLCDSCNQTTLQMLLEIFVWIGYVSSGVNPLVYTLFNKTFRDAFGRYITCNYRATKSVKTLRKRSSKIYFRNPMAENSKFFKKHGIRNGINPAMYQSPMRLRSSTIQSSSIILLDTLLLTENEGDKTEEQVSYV

UniProt P28223, sequence (P28223 whole entry): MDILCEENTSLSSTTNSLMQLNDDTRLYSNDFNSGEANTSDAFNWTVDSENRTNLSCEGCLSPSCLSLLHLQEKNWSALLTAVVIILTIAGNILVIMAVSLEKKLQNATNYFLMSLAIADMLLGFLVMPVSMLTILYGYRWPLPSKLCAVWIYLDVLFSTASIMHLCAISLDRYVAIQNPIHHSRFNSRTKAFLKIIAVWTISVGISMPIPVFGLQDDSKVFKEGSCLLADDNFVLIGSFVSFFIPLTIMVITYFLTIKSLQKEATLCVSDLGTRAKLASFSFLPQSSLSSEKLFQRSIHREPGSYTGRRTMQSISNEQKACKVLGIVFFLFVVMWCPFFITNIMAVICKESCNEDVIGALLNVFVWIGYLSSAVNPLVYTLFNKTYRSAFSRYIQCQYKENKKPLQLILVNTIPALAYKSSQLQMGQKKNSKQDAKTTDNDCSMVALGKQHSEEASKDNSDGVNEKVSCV
T1 sequence (P08908 whole entry): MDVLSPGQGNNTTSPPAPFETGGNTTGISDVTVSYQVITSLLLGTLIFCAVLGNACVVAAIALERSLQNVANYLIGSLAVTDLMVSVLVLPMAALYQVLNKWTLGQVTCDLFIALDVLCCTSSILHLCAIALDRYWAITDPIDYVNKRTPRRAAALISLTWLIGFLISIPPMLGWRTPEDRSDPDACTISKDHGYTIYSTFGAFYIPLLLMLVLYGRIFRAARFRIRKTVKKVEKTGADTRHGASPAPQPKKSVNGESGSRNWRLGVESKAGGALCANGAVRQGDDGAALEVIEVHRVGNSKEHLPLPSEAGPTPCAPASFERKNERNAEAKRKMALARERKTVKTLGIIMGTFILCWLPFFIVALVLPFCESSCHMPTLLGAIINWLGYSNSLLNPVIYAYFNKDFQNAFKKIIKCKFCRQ

Compound	Ki [1] [nM]	h5-HT2A Activation efficacy max ± SD [2] [%]	EC50 ([2]; read-out: h5-HT2A Activation potency EC50 ± SD) [nM]	h5-HT2B Activation efficacy max ± SD [3] [%]	EC50 ([3]; read-out: h5-HT2B Activation potency EC50 ± SD) [nM]
COc1cc(CCN)c(OC)cc1Br [2C-B]	311 ± 46	92 ± 8	2.1 ± 0.8	52 ± 26	75 ± 14
CCN(CC)C(=O)[C@@H]1C=C2c3cccc4[nH]cc(c34)C[C@H]2N(C)C1 [compound 3, lysergic acid diethylamide]	–	73 ± 2	–	–	–
